The values below come from PubChem BioAssay AID1508642 (National Center for Advancing Translational Sciences (NCATS), 2021).

Among all 43,000 compounds or so, about 200 (0.47%) were called active. Roughly 12% stayed inconclusive and do not appear here. Calls come from the whole dose curve; as a rule, active = well fitted cell-killing curve with a large enough effect; inconclusive = small, poorly fitted or top-dose-only effect, or effect the other way; inactive = flat fitted curve, though single readings scatter. The list shows a part of the results.
% is set by controls: 0 for no effect and ±100 for the full control effect.

The nature of the assay: Cell viability qHTS assay in S16 Pmp22-F2sN cells. Note: nearly all actives have a fitted effect of over 65% in size. The conditions noted are these: S16 Pmp22-F2sN Schwann cells (luciferase reporters placed in the Pmp22 gene) viability, CellTiter-Glo, 24 h; series mostly up to 57.5 µM; activity change, negative = cytotoxicity: at the top concentration. An outline of the steps: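 CellTiter-Glo counter-screen, qHTS, 1536-well. Cells: S16(c9) Pmp22-F2sN, 500-1,000/well in DMEM + 10% FBS. Cpd 23 nL pin transfer, 24 h, 37C/5% CO2. Read: luminescence, CCD imager.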
A general note: qHTS replaces the single test concentration by a dilution series.
With `CCn1c(=O)n(-c2ccc3c(c2)OCO3)c2nc(-c3cccc(OC)c3OC)nc(C(N)=O)c21`, the “activity change, negative = cytotoxicity” value is inactive: -0.244%. The figure for `CCCn1cc(S(=O)(=O)c2ccc(C)c(C)c2)c(=O)c2cc(F)c(N3CCC(C)CC3)cc21` is inactive: 7.16%. For the compound `COc1ccc(N2CCN(C(=O)c3ccc4c(c3)N(Cc3cccc(Cl)c3)C(=O)c3ccccc3S4(=O)=O)CC2)cc1`, the “activity change, negative = cytotoxicity” value is inactive: -2.52%. On to `COc1cccc(CNC(=O)c2c(C)oc3ncnc(N4CCOCC4)c23)c1`, for which the “activity change, negative = cytotoxicity” value was inactive: -6.58%. The figure for `COc1ccc(N2CCN(C(=O)C3Cc4ccccc4N3C(C)=O)CC2)cc1` (stereo not given) is inactive: -23.7%.

`Cc1cc(C)cc(N2CCn3c2nc2c3c(=O)n(C/C=C/c3ccccc3)c(=O)n2C)c1`: the “activity change, negative = cytotoxicity” value is inactive: 3.27%. With `COc1cccc(CC(=O)Nc2ccc(-c3nc4ccccc4s3)cc2Cl)c1`, the “activity change, negative = cytotoxicity” value is inactive: -16.2%. Take `CCOc1cc(CNC(=O)C2CCN(c3nc4ccccc4[nH]3)CC2)cc(OCC)c1OCC`: the “activity change, negative = cytotoxicity” value was inactive: 11%. Consider `Cc1ccc2nc(-c3ccc(F)cc3)c(NC(C)(C)CC(C)(C)C)n2c1`, for which the “activity change, negative = cytotoxicity” value was inactive: -4.95%. As for `Cc1c(Cl)cccc1NC(=O)CSc1ccc(-c2ccccn2)nn1`, the figure is inactive: -0.723%; as for `Cc1ccc(C)c(NC(=O)CCOc2ccccc2)c1`, inactive: -3.02%; as for `COC(=O)c1sc2c(c1C)c(=O)n(-c1ccccc1)c(=O)n2CC(=O)Nc1cccc(C)c1`, inactive: -1.95%. `Cc1nn2c(=O)cc(COC(=O)c3ccccc3NC(=O)c3cccs3)nc2s1`: the “activity change, negative = cytotoxicity” value is inactive: -8.3%.

With `CC(C)NC(=O)c1ccc2c(c1)N(Cc1cccc(Cl)c1)C(=O)c1ccccc1S2=O` (stereo not given), the “activity change, negative = cytotoxicity” value is inactive: -1.68%. For `CCc1ccccc1NS(=O)(=O)c1ccc2c(c1)CCCN2C(=O)C1CCC1`, the “activity change, negative = cytotoxicity” value is inactive: -29.5%. Turning to `COc1ccc(NC(=O)CN2CCN(Cc3ccccc3Cl)S2(=O)=O)cc1Cl`, the “activity change, negative = cytotoxicity” value is inactive: 2%. As for `COc1cc(OC)c(NC(=O)N2CCC(CN3CCOCC3)CC2)cc1Cl`, the figure is inactive: 19.9%; as for `CCN(C(=O)Cn1c(=O)oc2cc(S(=O)(=O)N3CCCCC3)ccc21)c1ccccc1`, inactive: 9.93%; as for `CCc1cccc(NC(=O)CCc2c(C)nc3c(-c4ccccc4)c(C)nn3c2C)c1`, inactive: 17.1%. As to `Cc1ccc(-c2nn(-c3ccccc3)c3c2cnc2ccccc23)cc1C`, the “activity change, negative = cytotoxicity” value is inactive: -4.39%. In the case of `Cc1cc(NC(=O)Nc2nnc(N3CCCCCC3)s2)ccc1Br`, the “activity change, negative = cytotoxicity” value was inactive: -0.629%. For the compound `CCOc1ccc(NC(=O)C(=O)NCCc2csc(-c3ccc(C(F)(F)F)cc3)n2)cc1`, the “activity change, negative = cytotoxicity” value was inactive: 6.4%. The figure for `Cc1ccc(C(=O)N2CCn3c4c(c5cc(C)ccc53)CCCC42)cc1` (stereo not given) is inactive: -14.3%; for `COc1ccc(CCNC(=O)c2ccc3c(c2)N(Cc2ccccc2)CCS3)cc1OC` it is inactive: -12.7%; for `Cc1cc(C)cc(NS(=O)(=O)c2ccc3[nH]cc(C(=O)NCCc4ccccc4)c(=O)c3c2)c1` it is inactive: 13%. Regarding `CC(C)c1ccc(NS(=O)(=O)c2cc(Br)cc3c2N(C(=O)C2CC2)CC3)cc1`, the “activity change, negative = cytotoxicity” value is inactive: 17.8%. Turning to `COc1ccc(OC)c(-c2noc(N3CCN(c4ccc(Cl)cc4)CC3)n2)c1`, the “activity change, negative = cytotoxicity” value is inactive: 27%.

Take `Cn1cnc(S(=O)(=O)N2CCCC(C(=O)NCc3ccc(F)cc3)C2)c1` (stereo not given): the “activity change, negative = cytotoxicity” value was inactive: 15.1%.

Take `Cc1ccc(S(=O)(=O)N(CCc2ccccc2)CC(=O)Nc2ccccc2C)cc1`: the “activity change, negative = cytotoxicity” value is inactive: 7.05%.

In the case of `COc1ccccc1CNC(=O)c1cc2c(s1)-c1ccc(Cl)cc1SC2`, the “activity change, negative = cytotoxicity” value was inactive: -0.721%. In the case of `COc1ccccc1N1CCN(C(CNC(=O)C(=O)NCc2cccnc2)c2cccnc2)CC1` (stereo not given), the “activity change, negative = cytotoxicity” value was inactive: -5.9%. With `CCN(CC)CCCNC(=O)CCC(=O)NNc1nc2ccccc2c2nc(C)nn12`, the “activity change, negative = cytotoxicity” value is inactive: 26.3%.

As to `O=C(COc1ccc(Cl)cc1)Nc1nnc(S(=O)(=O)N2CCCCCC2)s1`, the “activity change, negative = cytotoxicity” value is inactive: -3.8%. The figure for `CCOc1cccc(CC(=O)N2CCc3c([nH]c4ccc(OC)cc34)C2c2ccc(F)cc2)c1OCC` (stereo not given) is inactive: -5.02%; for `CC(=O)N1CCCc2cc(S(=O)(=O)N3CCC(C(=O)Nc4ccc(C)cc4Cl)CC3)ccc21` it is inactive: -1.29%; for `CCCCOc1ccc(C2C(C(=O)Nc3ccccc3OC)=C(C)Nc3nnnn32)cc1OC` (stereo not given) it is inactive: -7.98%. Turning to `Cc1ccn2c(Nc3ccc4c(c3)OCCO4)c(-c3ccccc3O)nc2c1`, the “activity change, negative = cytotoxicity” value is inactive: 0.746%. For the compound `Cc1ccc(S(=O)(=O)n2nc(C)c(S(=O)(=O)N3CCCCCC3)c2C)cc1C`, the “activity change, negative = cytotoxicity” value is inactive: -13.8%. As to `CC(C)Cc1nn2c(=O)cc(COC(=O)c3ccc(NC(=O)C4CCCCC4)cc3)nc2s1`, the “activity change, negative = cytotoxicity” value is inactive: 4.42%. The figure for `COc1ccc(NC(=O)c2cc(S(=O)(=O)N3CCCC3)ccc2OC)cc1` is inactive: 10.5%; for `CCOc1ccc(C(=O)NCC(c2cccs2)S(=O)(=O)c2ccccc2)cc1` (stereo not given) it is inactive: 3.46%; for `CCOc1ccc(NC(=O)c2cc(C)nc3c2c(C)nn3-c2ccc(C)cc2)cc1` it is inactive: 4.99%. In the case of `Cc1cccc(C(=O)N2CCc3cc(CNC(=O)CSc4ccccc4)ccc32)c1`, the “activity change, negative = cytotoxicity” value was inactive: -6.11%. On to `CCOc1ccc(C(=O)NCCSc2c(C)[nH]c3ccccc23)cc1OCC`, for which the “activity change, negative = cytotoxicity” value was inactive: 16.3%. As for `CCOc1ccccc1NC(=O)c1ccc(F)c(S(=O)(=O)N2CCN(c3ccc(F)cc3)CC2)c1`, the “activity change, negative = cytotoxicity” value was inactive: 3.17%. Consider `COc1ccc(Cn2ccnc2SCC(=O)Nc2nnc(C)s2)cc1`, for which the “activity change, negative = cytotoxicity” value is inactive: -6.77%. As to `Cc1nn2c(C)c(C(=O)NCc3ccc(OC(C)C)cc3)cnc2c1-c1ccc(F)cc1`, the “activity change, negative = cytotoxicity” value is inactive: -12.6%.

`COc1cccc(-n2c(SCc3ccc(F)cc3)nc3c([nH]c4ccccc43)c2=O)c1`: the “activity change, negative = cytotoxicity” value was inactive: 10.1%. The figure for `Cc1ccc2nc(-c3ccc(Cl)s3)c(Nc3ccc4c(c3)OCCO4)n2c1` is inactive: 3.56%; for `COC(=O)c1ccc(NC(=O)CN(C)S(=O)(=O)c2ccc(Br)s2)cc1` it is inactive: 7.11%. For the compound `COc1ccc(NC(=O)Cn2c(=O)c3ccccc3n3nncc23)c(OC)c1`, the “activity change, negative = cytotoxicity” value was inactive: 19.7%. As for `CC(=O)c1c(C)oc2c1cc(NS(=O)(=O)c1ccc(C(C)(C)C)cc1)c1ccccc12`, the “activity change, negative = cytotoxicity” value is inactive: -13.7%. `Cc1ccc(CNC(=O)C(C)n2nc(C)c3sc4ccccc4c3c2=O)cc1` (stereo not given): the “activity change, negative = cytotoxicity” value is inactive: -21.1%. Consider `CCN(CCCNC(=O)c1nn(-c2ccc(C)cc2)c(=O)c2c1c1ccccc1n2C)c1cccc(C)c1`, for which the “activity change, negative = cytotoxicity” value is inactive: 21.8%. The figure for `Cc1cccc(NC(=O)CN2C(=O)C(c3ccc(F)cc3)=NC23CCCCCC3)c1` is inactive: -7.34%; for `CCn1c(=O)cc(OCC(=O)N2CCN(c3cccc(C)c3C)CC2)c2ccccc21` it is inactive: 3.88%. Regarding `COc1cccc(CNC(=O)CN2C(=O)COc3ccc(S(=O)(=O)N4CCOCC4)cc32)c1`, the “activity change, negative = cytotoxicity” value is inactive: 2.24%. Consider `Cc1ccc2c(c1)-c1c(c(C(=O)N3CCN(c4cc(C)ccc4C)CC3)nn1C)CS2`, for which the “activity change, negative = cytotoxicity” value is inactive: 7.65%. For the compound `Cc1ccc(CNC(=O)c2ccc(N3CCCC3)c(NC(=O)Nc3ccc(F)c(Cl)c3)c2)cc1`, the “activity change, negative = cytotoxicity” value is inactive: 2.39%. As for `COc1ccc(CCNC(=O)CSc2nc3nc(C)c(Cc4ccc(C)cc4)c(C)n3n2)cc1OC`, the figure is inactive: 5.32%.
